# Test results: PubChem BioAssay AID463173 (ICCB-Longwood Screening Facility, Harvard Medical School, 2010)
# In all, about 52,000 compounds went through this assay and about 1,700 (3.3%) were called active. Cut-off read from the data, not from the text of the source: active = survival mostly below about 52% (no sharp cut-off); inactive = mostly above about 56%. The list shows a part of the results.
# System: Wild type
# Experiment: S. aureus survival, RN4220 and DeltatarO strains – OD600, teichoic acid synthesis inhibitors, primary screen (AID 463173)
# Details: S. aureus RN4220 wild type/DeltatarO growth, OD600, 18 h, hits give low values, screened at 18.75 µg/mL (by protocol)
row,SMILES,survival
1,CCn1c(CN2CCOCC2)nc2cc(NC(=O)c3cc(OC)c(OC)c(OC)c3)ccc21,inactive: 83%
2,CSc1nn(Cc2ccc(Br)cc2)c(N(C(C)=O)C(C)=O)c1S(=O)(=O)c1ccccc1,inactive: 45%
3,CC(=O)c1ccc(NC(=O)C2CCC(CNS(=O)(=O)c3ccc4c(c3)CCCC(=O)N4)CC2)cc1 (stereo not given),inactive: 45%
4,COc1ccc(-c2cc(C(=O)NCc3ccccc3)c3c(-c4ccccc4)[nH]nc3n2)cc1,inactive: 78%
5,CC1CCN(C(=O)Cn2ncc3c4ccccc4n(Cc4ccc(Cl)cc4)c3c2=O)CC1,inactive: 95%
6,COc1ccccc1N1CCN(C(=O)Cc2c(C(=O)O)c(C)cn2C)CC1,active: -6%
7,CC(=O)c1ccc(NC(=O)c2cc(-c3ccc(Cl)c(Cl)c3)on2)cc1,inactive: 78%
8,CCc1ccccc1NC(=O)C1CCCN(c2nnc(-n3c(C)ccc3C)s2)C1 (stereo not given),inactive: 75%
9,CCCCSCCCNC(=O)C1CCC(CNS(=O)(=O)c2ccccc2)CC1 (stereo not given),inactive: 80%
10,CCOc1ccc(CCNC(=O)c2ccc3nc(CC)c(CC)nc3c2)cc1,inactive: 77%
11,O=C(Nc1ccc(F)cc1F)c1ccc2c(=O)n3c(nc2c1)CCCCC3,inactive: 75%
12,COc1ccccc1-c1cc(C(=O)Nc2cc(Cl)ccc2O)no1,inactive: 84%
13,CCOc1ccc(CNC(=O)c2cnc3sc(N4CCC(C)CC4)nn3c2=O)cc1OC,inactive: 91%
14,CCOc1ccc(OCC(=O)Nc2c(C(=O)Nc3ccc(C)cc3)oc3ccccc23)cc1,inactive: 93%
15,Cc1c(C(=O)N(C)c2cccc(C(F)(F)F)c2)sc2nc3n(c(=O)c12)CCCCC3,inactive: 98%
16,Fc1ccc(CNc2nc3ccc(Cl)cc3n3nnnc23)cc1,inactive: 99%
17,COc1cccc(-n2c(=O)c3sc4ccccc4c3n(CC(=O)Nc3cccc(Cl)c3)c2=O)c1,inactive: 78%
18,COC(=O)C1=C(C)NC2=C(C(=O)CC(c3ccco3)C2)C1c1cccc(OC)c1 (stereo not given),inactive: 98%
19,O=S(=O)(Nc1cccc(-c2ccc(N3CCCCC3)nn2)c1)c1ccc(Cl)s1,inactive: 82%
20,CCCC(=O)N(Cc1nc2ccccc2c(=O)[nH]1)C1CCCC1,inactive: 85%
21,CCSc1ncc(Cl)c(C(=O)N2CCN(c3ccc(OC)cc3)CC2)n1,inactive: 89%
22,C=Cc1ccc(Cn2c(=O)n(-c3cccc(C)c3)c(=O)c3c2c2cc(C)ccc2n3C)cc1,inactive: 136%
23,O=S(=O)(c1cccc(Cl)c1)c1nnn2c1nc(NC1CCCCCC1)c1sccc12,inactive: 120%

row,SMILES,survival
1,CCN(CC)CCCNC(=O)c1ccc2nc(CCc3ccccc3)oc2c1,inactive: 83%
2,O=C(Nc1ccc2c(c1)N(C1CCCC1)C(=O)c1ccccc1S2)c1ccc(F)cc1,inactive: 87%
3,CCN(CC)c1ccc(NC(=O)C2COc3ccc(OC)cc3C2)c(C)c1 (stereo not given),inactive: 131%
4,Cc1ccc(S(=O)(=O)c2c(C)nn(-c3ccccc3)c2OC(=O)c2ccccc2F)cc1,inactive: 51%
5,Cc1cc(C(=O)Nc2cccc(OC(C)C)c2)c(C)o1,inactive: 110%
6,CCN(c1ccc(Cl)cc1)S(=O)(=O)c1nnc(NC(=O)C(C)C)s1,inactive: 88%
7,COc1ccc(Nc2nc(NCCO)c3ccccc3n2)c(OC)c1,inactive: 111%
8,CCC(=O)Oc1ccc(-c2nc3ccccc3c(=O)o2)cc1,inactive: 73%
9,CCOC(=O)c1ccccc1NC(=O)Cn1c(=O)n(Cc2ccccc2)c(=O)c2c(C)c(C)sc21,inactive: 90%
10,CC(C)(C)OC(=O)N1CCC(c2c(C(=O)NCc3ccco3)cnn2-c2ccc(F)cc2)CC1,inactive: 85%
11,Cc1ccc(-n2ncc(C(=O)N3CCN(Cc4ccccc4)CC3)c2C2CCN(C(=O)OC(C)(C)C)CC2)c(C)c1,inactive: 47%
12,Cc1ccc(C)c(S(=O)(=O)c2nnn3c2nc(NCc2ccc4c(c2)OCO4)c2sccc23)c1,inactive: 78%
13,CN(C)c1ccc(NC(=O)Cn2c(SCc3ccccc3F)nc3cccnc32)cc1,inactive: 135%
14,CN(C)c1ccc(C(CNS(=O)(=O)c2ccc(Br)cc2)N2CCOCC2)cc1 (stereo not given),inactive: 88%
15,O=c1c2sc3ccccc3c2n(Cc2ccccc2F)c(=O)n1CCc1ccccc1,inactive: 86%
16,COc1ccc(-c2nnc(SCC(=O)Nc3ccc(F)cc3)s2)cc1,inactive: 84%
17,CCc1ccc(-c2ccc(C(=O)Oc3ccc(Br)cc3)cc2)nc1,inactive: 76%
18,CCOC(=O)c1cnc(SCC(=O)OC)nc1N,inactive: 95%
19,O=C(c1ccc2c(Cl)c3c(nc2c1)CCCC3)N1CCN(c2cccc(Cl)c2)CC1,inactive: 62%
20,Cc1cccc(N2C(=O)CCSC23C(=O)N(Cc2ccc(F)cc2)c2ccccc23)c1 (stereo not given),inactive: 125%
21,Cc1ccc(-c2c(C(=O)NCCc3ccc(Cl)cc3)oc(=O)c3ccccc23)cc1,inactive: 57%
22,Cc1ccc(N2CNC(=O)c3c(C)cc(C)nc32)cc1,inactive: 113%
23,O=C(CSc1ncn(-c2ccccc2)n1)NC1CCCCC1,inactive: 102%

row,SMILES,survival
1,Cc1c(C)n(C)c2ccc(C(=O)NCCCN3CCCCC3)cc12,inactive: 97%
2,COc1ccc(NC(=O)C2=C(C)Nc3nc(SCc4ccccc4)nn3C2c2cc(OC)ccc2OC)cc1 (stereo not given),inactive: 70%
3,O=C1C=CC(=O)N1c1ccc(N2CCCCC2)cc1,inactive: 88%
4,Cc1ccc(Cn2ccc(NC(=O)c3cc(-c4ccc(Cl)c(Cl)c4)on3)n2)cc1,inactive: 74%
5,COCCc1nn2c(=O)cc(COC(=O)c3ccc(C(C)(C)C)cc3)nc2s1,inactive: 124%
6,O=[N+]1C2=C(CCCC2)N([O-])C12CCCC2,inactive: 104%
7,CCN(c1ccccc1)S(=O)(=O)c1ccc(Cl)cc1,inactive: 121%
8,Cc1c(-c2cccc(NC(=O)C(C)(C)C)c2)nc2ncccn12,inactive: 71%
9,Cc1ccc(-c2nc(SCc3ccc(Br)cc3)n3[nH]c(=O)cc3n2)cc1,active: 10%
10,CN1CC(=O)N(CC(=O)Nc2ccc(Cl)c(C(F)(F)F)c2)c2ccccc2C1=O,inactive: 100%
11,CCN(CC)S(=O)(=O)c1ccc(C(=O)N=c2sc3cccc(OC)c3n2C)cc1,inactive: 90%
12,COc1ccc(CNc2ncnc3c2c(-c2ccccc2)cn3-c2ccccc2)cc1,inactive: 84%
13,CCc1c(SCC(=O)O)nc2ccccc2c1C,inactive: 111%
14,Cc1ccc(S(=O)(=O)c2nc(-c3ccc(Cl)cc3)oc2N2CCCCCC2)cc1,inactive: 30%
15,CCCn1c(SCC(=O)Nc2ccccc2C(F)(F)F)nnc1-c1ccoc1C,inactive: 101%
16,Cc1ccc2nc(N3CCN(c4cccc(C)c4C)CC3)c3nnnn3c2c1,inactive: 82%
17,N#Cc1c(N)oc(-c2ccc3c(c2)OCO3)c1-c1ccc2c(c1)OCO2,inactive: 66%
18,COc1ccccc1CNC(=O)c1cccc(Nc2nc3ccccc3n3nnnc23)c1,inactive: 85%
19,COc1ccc(Cn2nnnc2C(c2ccccc2F)N(Cc2ccco2)CC2CCCO2)cc1 (stereo not given),inactive: 130%
20,CCC1CN(C(=O)N2CCC(C(=O)NCc3cccs3)CC2)c2cc(C)ccc2O1 (stereo not given),inactive: 86%
21,Cc1ccccc1Nc1c2c(nc3nncn13)CCC2,inactive: 82%
22,O=C(O)/C=C\C(=O)Nc1ccc2cn[nH]c2c1,inactive: 103%
23,O=C(COc1ccc(F)cc1)Nc1ccc2nc(SCc3ccccc3)sc2c1,inactive: 84%

row,SMILES,survival
1,CCc1cccc(NC(=O)CSc2ncc3c(n2)-c2ccccc2N(Cc2ccccc2C)S3(=O)=O)c1,active: 0%
2,O=C(CC1(O)C(=O)N(CCc2ccccc2)c2ccc(Br)cc21)c1ccccc1O (stereo not given),active: 6%
3,CCOc1ccc(-c2cc(C(=O)NCc3ccccc3)c3c(-c4ccc(CC)cc4)[nH]nc3n2)cc1,inactive: 60%
4,CC(C)(C)C(=O)Nc1c(C(=O)N2CCN(c3ccc(F)cc3)CC2)oc2ccccc12,inactive: 73%
5,COc1ccc(NC(=O)Cc2csc(C)n2)cc1,inactive: 83%
6,CC(=O)c1ccc(NC(=O)NCCc2c[nH]c3ccccc23)cc1,inactive: 101%
7,Cc1cccc(NC(=O)CSc2nnc(CNC(=O)c3c(F)cccc3Cl)o2)c1C,inactive: 79%
8,CC(C)c1nn2c(=O)cc(COC(=O)c3ccc(NC(=O)CCc4ccccc4)cc3)nc2s1,inactive: 71%
9,CCCCNS(=O)(=O)c1ccc2c(c1)C(=C(C#N)C#N)c1cc(S(=O)(=O)NCCCC)ccc1-2,inactive: 99%
10,CCCCCn1c(=O)[nH]c2cc(C(=O)Nc3ccc(F)cc3)ccc2c1=O,inactive: 114%
11,CCOC(=O)C1CCN(S(=O)(=O)c2cc(-c3cc(C)no3)ccc2C)CC1,inactive: 70%
12,Cc1cccc(-c2nc3scc(CCNC(=O)c4ccccc4Cl)n3n2)c1,inactive: 102%
13,CC1CCN(CCNC(=O)c2ccc(Cn3c(SCc4ccccc4)nc4cccnc43)cc2)CC1,inactive: 101%
14,CCN(CC)C(=O)c1c(NC(=O)c2cccc(C)c2)sc2c1CCC(C)C2 (stereo not given),active: 2%
15,CCN1CCC(N(Cc2ccc3c(c2)OCO3)C(=O)Nc2cc(F)ccc2F)CC1,inactive: 55%
16,Cc1ccc(NC(=O)c2sc3nc(-c4cccs4)ccc3c2N)cc1F,inactive: 92%
17,O=C(NC12CC3CC(CC(C3)C1)C2)c1cncc(O)c1,inactive: 102%
18,COc1ccc(-c2cc(C(F)(F)F)nc(SCCC(=O)Nc3ccc(OC)c(OC)c3)n2)cc1,inactive: 51%
19,CCCCc1nnc(SCc2cc(=O)c3cc(F)ccc3[nH]2)n1C,inactive: 68%
20,CC(C)(C)NC(=O)C1CCN(c2nc3ccccc3nc2C(F)(F)F)CC1,inactive: 45%
21,COc1ccc(C(=O)NCCn2cc(SCc3c(F)cccc3Cl)c3ccccc32)cc1,inactive: 59%
